According to PubChem BioAssay AID463173 (ICCB-Longwood Screening Facility, Harvard Medical School, 2010):
The whole screen tested about 52,000 compounds, of which about 1,700 (3.3%) were called active. No stated cut-off is given here; in the data, active means survival mostly below about 52% (no sharp cut-off); inactive means mostly above about 56%. The list shows a part of the results.

Each compound was assayed on Wild type (assay: S. aureus survival, RN4220 and DeltatarO strains – OD600, teichoic acid synthesis inhibitors, primary screen (AID 463173)). Conditions: S. aureus RN4220 wild type/DeltatarO growth, OD600, 18 h, hits give low values, screened at 18.75 µg/mL (by protocol).

Compound | survival
Cc1cc(C)cc(-n2ccn(CC(=O)Nc3cc(C)ccc3C)c(=O)c2=O)c1 | inactive: 88%
Cc1ccc(N2CC(NC(=O)c3ccc(S(=O)(=O)N4CCCC4)cc3)CC2=O)cc1C (stereo not drawn) | inactive: 88%
Nc1nc2ccccc2n1C(=O)c1ccccc1 | inactive: 114%
COc1ccc(CCNc2nc(-c3ccc(OC)c(OC)c3)cc(C(F)(F)F)n2)cc1OC | active: 0%
Cc1cccc(CS(=O)(=O)Cc2ccc(C(=O)NCCc3ccccc3)o2)c1 | inactive: 113%
Cc1ccc(-c2cn(-c3cccc(Cl)c3)c(S(=O)(=O)CC(=O)Nc3cccc(C)c3)n2)cc1 | inactive: 82%
CCOC(=O)c1c(S(=O)(=O)N2CCCC(C(=O)NCc3cccc(OC)c3)C2)c(C)n(C)c1C (stereo not drawn) | inactive: 127%
COc1cccc(OC)c1C(=O)Nc1cccc(-c2cn3ccsc3n2)c1 | inactive: 72%
CCOc1ccc(N2CC(c3nc4ccccc4n3Cc3ccccc3F)CC2=O)cc1 (stereo not drawn) | inactive: 113%
COc1ccc(-c2nnc(SCC(=O)NC3CCCC3)nc2-c2ccc(OC)c(OC)c2)cc1OC | inactive: 60%
O=C(NCc1ccccc1)C1CCN(S(=O)(=O)c2ccc3c(c2)CCCN3C(=O)C2CCC2)CC1 | inactive: 85%
CCOC(=O)c1scc(-c2ccc(C)cc2)c1S(=O)(=O)N1CCN(c2ccccc2F)CC1 | inactive: 120%
O=C(CCC1N=C2c3ccccc3N=C(SCc3cccc(F)c3)N2C1=O)NCc1cccs1 (stereo not drawn) | inactive: 84%
CCOc1ccc(NC(=O)c2ccc(F)c(S(=O)(=O)N(CC)Cc3ccccc3)c2)cc1 | inactive: 77%
Cc1cccc(NC(=O)C(=O)NCC(c2cccnc2)N2CCc3ccccc3C2)c1C (stereo not drawn) | inactive: 85%
Cc1ccc(NC(=O)NCc2cccn2Cc2ccccc2)c(C)c1 | inactive: 67%
CCCCCSc1ncnc2c1sc1nc(N3CCOCC3)c3c(c12)CCCC3 | inactive: 64%
COCCNC(=O)c1cc2ccccc2o1 | inactive: 106%
Cc1ccc(Cl)cc1N1CCN(C(=O)CCNS(=O)(=O)c2ccc3c(c2)CCN3C(=O)C2CC2)CC1 | inactive: 73%
COc1ccc(OC)c(NC(=O)c2cc(S(=O)(=O)NCCc3ccc(Cl)cc3)ccc2F)c1 | inactive: 79%
CCC(C)NC(=O)Cn1c(=O)n(-c2ccc(C)c(C)c2)c(=O)c2c3c(sc21)CCCCC3 (stereo not drawn) | inactive: 91%
COC(=O)c1ccc(-c2nc3cc(NC(C)=O)ccc3o2)cc1 | inactive: 150%

Compound | survival
Cc1ccc(C(=O)Nc2ccc3oc(-c4cccnc4)nc3c2)cc1 | inactive: 112%
N#Cc1ccc(N2CCOCC2)cc1C#N | inactive: 105%
CCOc1ccc(CCNC(=O)c2sc3ncccc3c2-n2cccc2)cc1OCC | inactive: 45%
CCOc1ccc(OCC)c(NC(=O)c2ccc(-c3ccccc3)s2)c1 | inactive: 23%
CCCCc1nn2c(=O)cc(COC(=O)C3CCCCC3)nc2s1 | inactive: 70%
Cc1nc2nc(SCC(=O)NC3CCC(C)CC3)nn2c(C)c1Cc1ccccc1 (stereo not drawn) | inactive: 101%
C=C(C)c1cccc(C(C)(C)NC(=O)N2CCCC2)c1 | inactive: 115%
COc1ccc(-n2c(=O)c3ccccc3n(Cc3cccc(C)c3)c2=O)cc1 | inactive: 75%
CCCN(c1ccc(C(C)C)cc1)S(=O)(=O)c1ccc2c(c1)oc(=O)n2CC(=O)OCC | inactive: 73%
COc1cccc(Cn2c(CNS(=O)(=O)c3ccc(C(C)(C)C)cc3)nc3cccnc32)c1 | inactive: 134%
COc1ccccc1N1CCN(C(=O)c2cc(S(=O)(=O)N3CCC(C)CC3)cn2C)CC1 | active: 0%
COc1ccc(-c2nc(CNC(=O)Nc3ccccc3)c(C)o2)cc1 | inactive: 84%
COc1cc2c(-c3cc(Br)ccc3O)nc3c(c(C)nn3-c3ccccc3)c2cc1OC | inactive: 67%
O=C(Nc1nnc(S(=O)(=O)Nc2ccccc2)s1)C1CCCCC1 | inactive: 44%
CCCSc1nnc2[nH]c(=O)cc(C)n12 | inactive: 135%
CCOC(=O)Cn1c(=O)n(CC2CCCO2)c2nc(-c3ccc(C(C)C)cc3)nc(C(N)=O)c21 (stereo not drawn) | active: 1%
CCOC(=O)c1ccc(N2C(=O)c3n[nH]c(C)c3C2c2ccc(OCC)cc2)cc1 (stereo not drawn) | inactive: 76%
Cc1ccccc1N(C)S(=O)(=O)c1nnc(NC(=O)C(C)C)s1 | inactive: 73%
COC(=O)C(C#N)C(c1cccnc1)c1c(C)[nH][nH]c1=O (stereo not drawn) | inactive: 108%
N#C/C(=C(\O)c1ccco1)c1nc2ccccc2[nH]1 | inactive: 118%
Cc1ccccc1NC(=O)Cn1c(=O)n(Cc2ccccc2)c(=O)c2sc3ccccc3c21 | inactive: 68%
CCOc1ccc(C(=O)NCC(c2ccco2)S(=O)(=O)c2cccs2)cc1 (stereo not drawn) | inactive: 69%

Compound | survival
Cc1ccccc1-c1nn2c(=O)cc(CN3CCN(S(=O)(=O)c4ccc(Cl)cc4)CC3)nc2s1 | inactive: 119%
Cc1nn(-c2ccc(N3CCCC3)nn2)c(C)c1CCC(=O)N1CCN(c2ccccc2)CC1 | inactive: 78%
COc1ccc2c(C)c(CCC(=O)NCc3ccc(Cl)cc3)c(=O)oc2c1C | inactive: 88%
CCN(Cc1ccccc1)C(=O)c1nn(-c2ccc(OC)cc2)c(=O)c2c1c1ccccc1n2C | inactive: 82%
Cc1[nH]c2ccccc2c1C1(O)C(=O)N(Cc2ccccc2Cl)c2ccccc21 (stereo not drawn) | inactive: 72%
Cc1ccc(C)c(N2C(=O)CS/C2=N\NC(=O)c2ccc(S(=O)(=O)N3CCCC3)cc2)c1 | inactive: 123%
COc1ccc(NC(=O)Cn2c(=O)n(-c3cccc(C(F)(F)F)c3)c(=O)c3sccc32)cc1 | inactive: 102%
COC(=O)C(NC(=O)CCc1c(C)nc2c(c(C)nn2-c2ccccc2)c1C)C(C)C (stereo not drawn) | inactive: 86%
Cc1ccccc1NC(=O)[C@H](CSCc1ccccc1)N1Cc2ccccc2C1=O | inactive: 69%
CCc1ccc(S(=O)(=O)Nc2ccc(-c3ccc(N4CCCC4)nn3)cc2)cc1 | inactive: 72%
CCC1CN(C(=O)Nc2ccc(Br)cc2F)c2ccccc2S1 (stereo not drawn) | inactive: 97%
O=C(NCC(c1ccc(Cl)cc1)N1CCCCC1)c1ccccc1F (stereo not drawn) | inactive: 94%
COc1ccccc1N1CCN(C(=O)CSc2n[nH]c(-c3ccccc3Cl)n2)CC1 | inactive: 75%
CCOc1ccc(OCC)c(NC(=O)CCc2nc3cccnc3n2-c2ccccc2)c1 | inactive: 86%
COc1cc(OC)cc(C(=O)Nc2ccc3nc(Nc4cccc(C(F)(F)F)c4)cc(C)c3c2)c1 | inactive: 79%
c1ccc2c(c1)nc1n2CCC1 | inactive: 111%
O=C(NCc1ccc(F)cc1)c1cnc(N2CCCCC2)c2ccccc12 | inactive: 69%
CCCOc1ccc(CNC(=O)C2CCCN(c3nc4c(C)cc(C)cc4s3)C2)cc1 (stereo not drawn) | inactive: 93%
C#CCn1c(C2CC(=O)N(c3ccc(OCC)cc3)C2)nc2ccccc21 (stereo not drawn) | inactive: 89%
CCN(CC)C(=O)C1CCN(c2nnc(C)c3c(C)n(-c4ccc(Cl)cc4)nc23)CC1 | inactive: 66%
COc1ccc(NC(=O)Cn2c(=O)n(CCCC(=O)NCCc3ccc(C)cc3)c(=O)c3ccccc32)cc1Cl | inactive: 93%
Cc1ccc(CCNC(=O)c2ccc3c(c2)N(Cc2ccccc2)C(=O)c2ccccc2S3=O)cc1 (stereo not drawn) | inactive: 93%

Compound | survival
COc1ccc(N2CCN(c3ncnc4onc(-c5ccc(F)cc5)c34)CC2)cc1 | inactive: 93%
Cc1cccc(NC(=O)c2ccc(F)c(S(=O)(=O)N3CCC4(CC3)OCCO4)c2)c1 | inactive: 71%
CC(C)NC(=O)C1CC(=O)N(c2ccc(Oc3ccccc3)cc2)C1 (stereo not drawn) | inactive: 101%
CC(C)Cn1c(=O)c2ccccc2n2c(CCC(=O)N3CCN(c4ccccc4)CC3)nnc12 | inactive: 127%
COc1ccc(C(=O)Nc2nnc(C)s2)cc1 | inactive: 72%
CC(C)c1ccc(C2c3c(-c4ccccc4O)n[nH]c3C(=O)N2Cc2ccncc2)cc1 (stereo not drawn) | inactive: 106%
CCCCOC(=O)CSc1nnc(-c2ccc(C)cc2)o1 | active: 8%
COc1cc(OC)c(NC(=O)N2CCc3cc(OC)c(OC)cc3C2CC(=O)O)cc1Cl (stereo not drawn) | inactive: 82%
CCc1ccc(C2CC(=O)c3c([nH]c(C(=O)OCCOc4ccccc4)c3C)C2)cc1 (stereo not drawn) | inactive: 83%
Cc1ccc2onc(CNC(=O)Nc3cc(F)ccc3F)c2c1 | inactive: 86%
Cc1ccc2c(c1)Cc1c(nc(-c3ccc(Cl)cc3)nc1SCC(=O)N1CCCCC1)O2 | inactive: 123%
Cc1ccn2c(Nc3ccc4c(c3)OCCO4)c(-c3cccs3)nc2c1 | inactive: 66%
Cc1ccc(Cl)cc1NC(c1ccc(F)cc1)c1nnc(-c2ccccc2)o1 (stereo not drawn) | inactive: 117%
Cc1ccc(NC(=O)C(CC(C)C)NS(=O)(=O)c2ccc3c(c2)oc(=O)n3C)c(C)c1 (stereo not drawn) | inactive: 80%
CC(=O)N1CCc2c(sc3c2c(=O)n(CCc2ccccc2)c(=O)n3CC(=O)Nc2ccc(C)c(F)c2)C1 | inactive: 90%
COc1cccc2c1Oc1ncccc1N(c1ccc(C(=O)NCc3ccccc3Cl)s1)C2 | inactive: 119%
O=C(CSc1nnc(-c2ccc(Cl)cc2)o1)Nc1ccc(F)cc1 | inactive: 83%
CCc1ccccc1NC(=O)Cn1c(=O)n(Cc2ccc3c(c2)OCO3)c(=O)c2ccc(C(=O)NC3CCCCC3)cc21 | inactive: 129%
Cc1ccccc1-c1nc(CS(=O)(=O)CC(=O)NCC(C)c2ccccc2)c(C)o1 (stereo not drawn) | inactive: 81%
CCc1ccc(OCC(=O)Nc2cc3oc4ccccc4c3cc2OC)cc1 | inactive: 76%
COc1cc(OC)c(NC(=O)C2CCCN(c3ncnc4c3nc3n4CCCCC3)C2)cc1Cl (stereo not drawn) | inactive: 127%
O=C(COc1ccccc1Cl)NCC1(N2CCOCC2)CCCCC1 | inactive: 104%
